Target: T1, hPD-L1-mFc (human)
T1 construct: it may hold a signal peptide; also called human PD-L1-mFc; PD-L1-mFc (Crownbio)
Assay: ELISA, coated PD-L1-mFc

EC50 [µg/mL] | Binder
0.0721 | ch13C5-hIgG1 (antibody, Mouse-human chimeric IgG1 (D265A), human kappa; also called Chimeric 13C5-IgG1 (D265A)) heavy: EVKLVESGGGLVKPGGSLKLSCAASGFIFRSYGMSWVRQTPEKRLEWVASISSGGSTYYPDSVKGRFTISRDNARNILYLQMSSLRSEDTAMYDCARGYDSGFAYWGQGTLVTVSS[human IgG1 constant region with D265A N297A (EU numbers) not spelt out] light: DIVLTQSPASLAVSLGQRATISCRASQSVSTSSSSFMHWYQQKPGQPPKLLIKYASNLESGVPARFSGSGSGTDFTLNIHPVEEEDTATYYCQHSWEIPYTFGGGTKLEIKRTRTVAAPSVFIFPPSDEQLKSGTASVVCLLNNFYPREAKVQWKVDNALQSGNSQESVTEQDSKDSTYSLSSTLTLSKADYEKHKVYACEVTHQGLSSPVTKSFNRGEC
0.118 | ch13C5-hIgG4 (antibody, Mouse-human chimeric IgG4 (F234A/L235A), human kappa; also called Chimeric 13C5-IgG4 (F234A/L235A)) heavy: EVKLVESGGGLVKPGGSLKLSCAASGFIFRSYGMSWVRQTPEKRLEWVASISSGGSTYYPDSVKGRFTISRDNARNILYLQMSSLRSEDTAMYDCARGYDSGFAYWGQGTLVTVSSASTKGPSVFPLAPCSRSTSESTAALGCLVKDYFPEPVTVSWNSGALTSGVHTFPAVLQSSGLYSLSSVVTVPSSSLGTKTYTCNVDHKPSNTKVDKRV[human IgG4 Fc with S228P F234A L235A (EU numbers) not spelt out] light: DIVLTQSPASLAVSLGQRATISCRASQSVSTSSSSFMHWYQQKPGQPPKLLIKYASNLESGVPARFSGSGSGTDFTLNIHPVEEEDTATYYCQHSWEIPYTFGGGTKLEIKRTRTVAAPSVFIFPPSDEQLKSGTASVVCLLNNFYPREAKVQWKVDNALQSGNSQESVTEQDSKDSTYSLSSTLTLSKADYEKHKVYACEVTHQGLSSPVTKSFNRGEC

From patent US20170204184A1 (CB THERAPEUTICS, published 2017)
